Assay results as given in publication PMC7708041.
No constants are given. Whether binding was seen depends on the method and setting. Binding seen in cells or lysates may run through a third protein. Some binding calls cover weakened binding; strength is not graded here. Tags and fused reporters may be left off the sequences shown.

Columns and labels:
[1] = biological target: T1, Tof1, codon-optimised wildtype, C terminally TAP tagged (S. cerevisiae) (UniProt P53840); assay: co-IP; TAP-tagged Tof1 proteins captured on IgG Sepharose from cleared lysates of exponentially growing yeast; 2 h, 4°C; lysis buffer 50 mM HEPES pH 7.5, 300 mM KCl, 5 mM EDTA, 10 mM MgOAc, 10% glycerol, 0.01% Triton X-100; eluted in 0.2 M glycine pH 3.0; western blot with anti-Csm3
T1 sequence: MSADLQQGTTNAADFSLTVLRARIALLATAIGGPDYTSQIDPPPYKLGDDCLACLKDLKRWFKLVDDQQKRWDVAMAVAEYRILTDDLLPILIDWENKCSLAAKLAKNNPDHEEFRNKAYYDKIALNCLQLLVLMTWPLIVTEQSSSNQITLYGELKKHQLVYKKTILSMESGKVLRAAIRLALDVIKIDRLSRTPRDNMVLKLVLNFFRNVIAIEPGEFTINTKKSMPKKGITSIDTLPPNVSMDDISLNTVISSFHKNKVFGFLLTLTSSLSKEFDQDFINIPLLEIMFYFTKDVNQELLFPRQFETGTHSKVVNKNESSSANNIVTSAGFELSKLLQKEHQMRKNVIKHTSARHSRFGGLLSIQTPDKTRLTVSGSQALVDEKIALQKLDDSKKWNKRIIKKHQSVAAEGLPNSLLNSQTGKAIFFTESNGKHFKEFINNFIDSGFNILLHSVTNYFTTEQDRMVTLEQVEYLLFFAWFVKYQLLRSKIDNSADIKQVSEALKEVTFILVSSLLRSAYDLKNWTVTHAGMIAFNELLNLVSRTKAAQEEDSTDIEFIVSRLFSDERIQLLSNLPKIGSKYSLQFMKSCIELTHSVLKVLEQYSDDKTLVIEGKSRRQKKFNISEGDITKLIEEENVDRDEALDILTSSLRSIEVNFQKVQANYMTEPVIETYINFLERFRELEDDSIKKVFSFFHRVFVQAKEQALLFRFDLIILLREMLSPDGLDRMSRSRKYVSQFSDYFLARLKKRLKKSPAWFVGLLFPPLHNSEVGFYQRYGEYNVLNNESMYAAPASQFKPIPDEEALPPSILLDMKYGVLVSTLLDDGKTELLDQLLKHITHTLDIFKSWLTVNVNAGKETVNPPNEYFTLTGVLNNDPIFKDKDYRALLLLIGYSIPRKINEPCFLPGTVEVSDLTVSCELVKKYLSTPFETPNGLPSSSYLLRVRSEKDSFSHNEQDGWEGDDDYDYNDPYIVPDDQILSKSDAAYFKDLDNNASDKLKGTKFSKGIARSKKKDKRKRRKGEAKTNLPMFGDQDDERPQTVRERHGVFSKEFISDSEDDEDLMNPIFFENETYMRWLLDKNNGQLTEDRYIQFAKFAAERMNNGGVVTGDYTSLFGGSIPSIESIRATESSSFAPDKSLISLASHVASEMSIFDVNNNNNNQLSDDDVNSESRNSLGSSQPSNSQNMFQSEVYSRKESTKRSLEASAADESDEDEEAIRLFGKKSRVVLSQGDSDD

[2] = biological target: T2, tof1 830 truncation protein, C terminally TAP tagged (S. cerevisiae) (UniProt P53840); assay: as above
T2 sequence: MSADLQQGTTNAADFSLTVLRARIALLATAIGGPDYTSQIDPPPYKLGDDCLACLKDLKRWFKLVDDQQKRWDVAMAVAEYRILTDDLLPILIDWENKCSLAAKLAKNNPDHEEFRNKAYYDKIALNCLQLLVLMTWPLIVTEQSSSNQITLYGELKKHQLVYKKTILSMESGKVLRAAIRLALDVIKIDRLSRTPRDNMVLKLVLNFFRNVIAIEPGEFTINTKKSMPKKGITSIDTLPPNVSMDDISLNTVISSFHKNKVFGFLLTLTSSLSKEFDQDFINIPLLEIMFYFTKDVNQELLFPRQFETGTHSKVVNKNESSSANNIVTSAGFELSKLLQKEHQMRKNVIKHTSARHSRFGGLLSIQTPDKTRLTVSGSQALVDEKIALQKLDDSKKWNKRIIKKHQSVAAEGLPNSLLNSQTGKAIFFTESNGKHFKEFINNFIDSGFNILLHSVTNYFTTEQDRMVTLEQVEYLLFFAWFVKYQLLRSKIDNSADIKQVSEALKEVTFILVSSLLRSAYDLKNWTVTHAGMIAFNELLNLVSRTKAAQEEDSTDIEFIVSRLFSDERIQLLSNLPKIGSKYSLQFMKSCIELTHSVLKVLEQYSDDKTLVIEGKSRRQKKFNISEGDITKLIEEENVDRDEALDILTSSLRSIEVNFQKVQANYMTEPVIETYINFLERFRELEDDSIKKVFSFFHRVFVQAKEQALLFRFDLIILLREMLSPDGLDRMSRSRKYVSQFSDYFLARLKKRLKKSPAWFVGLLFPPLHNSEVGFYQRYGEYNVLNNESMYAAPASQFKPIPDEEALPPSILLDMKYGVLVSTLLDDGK

- binding [1]: binds
- binding [2]: binds
B1: Csm3 (protein, UniProt Q04659 1-317)
chain: MDQDFDSLLLGFNDSDSVQKDPTVPNGLDGSVVDPTIADPTAITARKRRPQVKLTAEKLLSDKGLPYVLKNAHKRIRISSKKNSYDNLSNIIQFYQLWAHELFPKAKFKDFMKICQTVGKTDPVLREYRVSLFRDEMGMSFDVGTRETGQDLERQSPMVEEHVTSAEERPIVADSFAQDKRNVNNVDYDNDEDDDIYHLSYRNRRGRVLDERGNNETVLNNVVPPKEDLDALLKTFRVQGPVGLEENEKKLLLGWLDAHRKMEKGSMTEEDVQLIQSLEEWEMNDIEGQHTHYDLLPGGDEFGVDQDELDAMKEMGF
